This is one part of the list. Most values come without repeats; read them as rough.
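Also: cell number obtained by counting DAPI-stained nuclei in high-throughput microscope images with image analysis software, screen run in 1,536-well plates.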

This assay relates to UACC62. The experiment in a line: cell count relative to DMSO control; melanoma cells; higher = more viable cells. Particulars: library dose: low library concentration; 72 h.
`O=C(O)[C@@H]1[O][Sb](=[O])([O][Sb]2(=[O])[O][C@H]([C@H](O)CO)[C@H](O)[C@H](C(=O)O)[O]2)[O][C@H]([C@H](O)CO)[C@@H]1O` (some centres undefined) [stibogluconate] + Cn1nnc2c(C(N)=O)ncn2c1=O [temozolomide] (first compound 2 µM, partner dose 2 µM) displayed a cell count of 79.4%. To `O=C(O)[C@@H]1[O][Sb](=[O])([O][Sb]2(=[O])[O][C@H]([C@H](O)CO)[C@H](O)[C@H](C(=O)O)[O]2)[O][C@H]([C@H](O)CO)[C@@H]1O` (some centres undefined) [stibogluconate] + CC(C)(C)c1cnc(CSc2cnc(NC(=O)C3CCNCC3)s2)o1 [SNS-032] (first compound 2 µM, partner dose 0.01 µM) belongs 93.4%; to `O=C(O)c1ccc2c(c1)nc(Nc1cccc(Cl)c1)c1ccncc12` + CO[C@@H]1[C@H](N(C)C(=O)c2ccccc2)C[C@H]2O[C@]1(C)n1c3ccccc3c3c4c(c5c6ccccc6n2c5c31)C(=O)NC4 [Midostaurin] (first compound 0.4 µM, partner dose 0.08 µM), 91.8%; to `O=C(O)[C@@H]1[O][Sb](=[O])([O][Sb]2(=[O])[O][C@H]([C@H](O)CO)[C@H](O)[C@H](C(=O)O)[O]2)[O][C@H]([C@H](O)CO)[C@@H]1O` (some centres undefined) [stibogluconate] + COCC[n+]1c2c(n(Cc3cnccn3)c1C)C(=O)c1ccccc1C2=O [YM155] (first compound 2 µM, partner dose 0.0004 µM), 87.4%.

For the origin of these results see the supplement of paper PMC4604168 (melanoma cell lines).
